From US20180312565A1 (Affibody, published 2018) come the findings set out here.

The chains are these.
T1: human B7-H3 Fc Chimera (R&D Systems, cat. no. 1027-B3-100) (human, UniProt Q5ZPR3-2 29-245, biotinylated in ELISA)
T1 construct: bought; also called hB7-H3; not shown: Fc part of the bought Fc chimera, not described
T1 sequence (looked up): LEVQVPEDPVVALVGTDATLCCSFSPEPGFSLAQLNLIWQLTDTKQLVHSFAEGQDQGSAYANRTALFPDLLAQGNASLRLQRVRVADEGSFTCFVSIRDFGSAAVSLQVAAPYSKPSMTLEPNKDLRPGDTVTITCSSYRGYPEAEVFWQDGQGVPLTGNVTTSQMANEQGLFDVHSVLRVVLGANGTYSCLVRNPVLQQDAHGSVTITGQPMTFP

T2: human PD-L2 Fc Chimera (R&D Systems, cat. no. 1224-PL-100) (human, UniProt Q9BQ51 20-219, biotinylated in ELISA)
T2 construct: bought; also called hPD-L2; not shown: Fc part of the bought Fc chimera, not described
T2 sequence (looked up): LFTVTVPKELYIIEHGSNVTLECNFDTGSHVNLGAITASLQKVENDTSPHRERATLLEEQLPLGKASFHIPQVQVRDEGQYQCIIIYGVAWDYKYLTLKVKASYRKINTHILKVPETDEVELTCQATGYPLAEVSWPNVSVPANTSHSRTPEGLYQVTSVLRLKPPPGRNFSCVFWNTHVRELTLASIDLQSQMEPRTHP

T3: human B7-H4 (R&D Systems, cat. no. 6576-B7-50) (human, UniProt Q7Z7D3 29-258, biotinylated in ELISA)
T3 construct: bought; also called hB7-H4
T3 sequence (looked up): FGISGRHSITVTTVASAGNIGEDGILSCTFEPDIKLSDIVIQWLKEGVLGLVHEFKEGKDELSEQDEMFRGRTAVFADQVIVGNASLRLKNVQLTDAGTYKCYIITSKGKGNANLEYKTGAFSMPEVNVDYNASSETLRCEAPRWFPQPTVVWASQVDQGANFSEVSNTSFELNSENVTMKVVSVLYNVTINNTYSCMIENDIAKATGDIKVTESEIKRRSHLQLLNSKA

B1: Z13117-ABD (designed binder)
chain: AQHDEALEVDAKYAKERNLAAWEILQLPNLTNYQHWAFIWKLDDDPSQSSELLSEAKKLNDSQAPKVDYVLAEAKVLANRELDKYGVSDYYKNLINNAKTVEGVKALIDEILAALPYVPG
notes: domain: GA3
B2: Z13088-ABD (designed binder)
chain: B1 chain with L19N, W22T, Q26R, N32A, Y33G, H35T
notes: domain: GA3
B3: Z13080-ABD (designed binder)
chain: B1 chain with L19S, W22E, Q26H, N32M, Y33Q, H35L
notes: domain: GA3
B4: Z13134-ABD (designed binder)
chain: B1 chain with L19Q, W22T, Q26V, N32H, Y33Q
notes: domain: GA3
B5: Z13104-ABD (designed binder)
chain: B1 chain with L19R, W22Y, Y33Q, D43M
notes: domain: GA3
B6: His6-Z17911 (designed binder)
chain: MGSSHHHHHHLQVDAKYAKERNNAAYEILYLPNLTNAQKWAFIWKLDDDPSQSSELLSEAKKLNDSQAPKVD
B7: His6-Z17964 (designed binder)
chain: B6 chain with N23A
B8: His6-Z17825 (designed binder)
chain: B6 chain with N23L
B9: His6-Z18074 (designed binder)
chain: B6 chain with N23Q, Y26F
B10: His6-Z18064 (designed binder)
chain: B6 chain with N23K
B11: His6-Z18048 (designed binder)
chain: B6 chain with N23S
B12: His6-Z17748 (designed binder)
chain: B6 chain with N23A, N36Q, A37S

Positions count from the first letter of the chain named.

One assay has as its target T1, human B7-H3 Fc Chimera (R&D Systems, …). Description: ELISA. On the technique in general: In an ELISA, binding on a coated surface is turned into a signal by an enzyme label.
With B1, the binding result is listed as “no binding (tested: 8 nM)”.
On the same count and under the same terms, the result for B2 reads “no binding (tested: 8 nM)”.
On the same count and under the same terms, the result for B3 reads “no binding (tested: 8 nM)”; that for B4, “no binding (tested: 8 nM)”.
As for B5, the binding result is reported as “no binding (tested: 8 nM)”.

The target in the next assay is T2, human PD-L2 Fc Chimera (R&D Systems, …). Nature of the assay: ELISA.
As for B1, the binding result is “no binding (tested: 8 nM)”.
On the same count and under the same terms, the result for B2 reads “no binding (tested: 8 nM)”; that for B3, “no binding (tested: 8 nM)”; that for B4, “no binding (tested: 8 nM)”.
Consider B5, for which the binding result is recorded as “no binding (tested: 8 nM)”.

The next assay addresses T3, human B7-H4 (R&D Systems, cat. no. …). Nature of the assay: ELISA.
Take B1: the binding result was “no binding (tested: 8 nM)”.
On to B2, for which the binding result is “no binding (tested: 8 nM)”.
Still for that read-out and setting: with B3 the entry was “no binding (tested: 8 nM)”; with B4, “no binding (tested: 8 nM)”.
Consider B5, for which the binding result is “no binding (tested: 8 nM)”.

In the next assay the target is T4, human PD-L1 Fc Chimera (R&D Systems, cat. no. 156-B7-100) (human, UniProt Q9NZQ7 19-239, biotinylated with Sulfo-NHS-LC-Biotin in ELISA and AlphaLISA; not biotinylated in SPR).
T4 construct: bought; also called hPD-L1; biotinylated hPD-L1; not shown: Fc part of the bought Fc chimera, not described
T4 sequence (Q9NZQ7 19-239, change not shown): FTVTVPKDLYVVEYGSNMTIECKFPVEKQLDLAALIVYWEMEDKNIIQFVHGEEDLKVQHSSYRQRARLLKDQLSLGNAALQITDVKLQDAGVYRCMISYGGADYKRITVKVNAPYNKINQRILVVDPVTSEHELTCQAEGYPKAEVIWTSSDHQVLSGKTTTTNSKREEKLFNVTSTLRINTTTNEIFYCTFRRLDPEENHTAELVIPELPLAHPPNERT
Nature of the assay: SPR ranking, 5 and 50 nM. The protocol: (§1) The Z variants were also tested for binding against the sequence-related proteins hPD-L2, hB7-H3 and hB7-H4. The Biacore analyses were performed essentially as described in Example 3, however a flow rate of 30 μl/min was used. […] In the specificity test, i.e. the binding analysis against hPD-L2, hB7-H3 and hB7-H4, the 24 Z variants were injected at a concentration of 500 nM.
Regarding B6, the equilibrium dissociation constant (Kd) (commonly a measure of binding affinity in units of concentration) is about 0.36 nM.
Same read-out and setting: the result for B7 reads about 0.3 nM.
The same measure, in the same setting: with B8 the figure was about 0.25 nM; with B9, about 0.36 nM.
As to B10, the Kd is about 0.13 nM.
Still for that read-out and setting: the result for B11 reads about 0.35 nM; that for B12, about 0.45 nM.

The target of another assay is T5, rhesus PD-L1/Fc Chimera (Sino Biological Inc., cat. no. 90251-C02H) (rhesus monkey, UniProt F6PJN1 19-239).
T5 construct: bought; also called RhPD-L1; rhesus monkey PD-L1; not shown: Fc part of the bought Fc chimera, not described
T5 sequence (F6PJN1 entry or part of it C02H C02H): as the sequence (Q9NZQ7 19-239, change not shown) above, with A33T, A34S, S62N, R68Q, Q82R, F173L, T185A, T192I, H215L counted along it
Description: SPR ranking, 5 and 50 nM. The protocol: as §1
Molecule B6 gave a dissociation constant (Kd) of about 2.2 nM.
In the case of B7, the Kd is about 2 nM.
The same measure, in the same setting: the result for B8 reads about 1.2 nM; that for B9, about 2.9 nM; that for B10, about 1.5 nM.
With B11, the Kd is about 1.8 nM.

The next assay addresses T4, human PD-L1 Fc Chimera (R&D Systems, …). Nature of the assay: AlphaLISA, blocks hPD-L1 binding to hPD-1. The protocol:
Exception 2: hPD-1-coated Acceptor beads were added to a final concentration of 10 μg/ml and incubated for 50 min.
B6: the IC50 – broadly, the midpoint of a concentration-inhibition curve – is 0.57 nM.
The same measure, in the same setting: the result for B7 reads 8.9 nM; that for B8, 0.16 nM.
Take B9: the 50% inhibitory concentration (IC50) is 0.31 nM.
B10: the IC50 is 0.39 nM.
B11 gave an IC50 of 0.15 nM.
Still for that read-out and setting: the result for B12 reads 1.1 nM.

For another assay the target is unchanged. Description: SPR, 1.67-135 nM. The protocol:
as §1
(In general: SPR reads the build-up and loss of mass on a sensor chip optically.)
Take B6: the Kd amounted to 0.21 nM; the koff (as a rule, the rate constant with which the complex falls apart) was 0.00049 s⁻¹; the kon (usually a measure of how fast the partners come together) was found to be 2.3e+06 M⁻¹ s⁻¹.
For B7, the affinity, expressed as Kd, was 0.21 nM; the off-rate (koff) was 0.00043 s⁻¹; the kon is 2.1e+06 M⁻¹ s⁻¹.
The like results for B8 were, in that order, 0.24 nM, 0.00047 s⁻¹ and 2e+06 M⁻¹ s⁻¹.
The molecule B9 gave an equilibrium dissociation constant (Kd) of 0.27 nM, a koff of 0.00054 s⁻¹ and an association rate constant (kon) of 2e+06 M⁻¹ s⁻¹.
For B10, the dissociation constant (Kd) was determined as 0.13 nM, the koff is 0.00043 s⁻¹ and the kon came out at 3.5e+06 M⁻¹ s⁻¹.
B11 registered a Kd of 0.23 nM, an off-rate constant (koff) of 0.00044 s⁻¹ and an association rate constant (kon) of 1.9e+06 M⁻¹ s⁻¹.
The molecule B12 returned a Kd of 0.34 nM.

A further assay has as its target T5, rhesus PD-L1/Fc Chimera (Sino …). Nature of the assay: SPR, 1.67-135 nM. The procedure: as §1
B6: binding was characterised by a dissociation constant (Kd) of 0.2 nM, the koff came out at 0.00042 s⁻¹ and the on-rate constant (kon) worked out at 2.1e+06 M⁻¹ s⁻¹.
Molecule B7 showed a dissociation constant Kd of 0.11 nM, a dissociation rate constant (koff) of 0.00038 s⁻¹ and a kon of 3.4e+06 M⁻¹ s⁻¹.
Turning to B8, binding was put at a Kd of 0.21 nM, the koff is 0.00039 s⁻¹ and the on-rate constant (kon) is 1.9e+06 M⁻¹ s⁻¹.
The like results for B9 were, in that order, 0.27 nM, 0.00046 s⁻¹ and 1.7e+06 M⁻¹ s⁻¹.
The like results for B10 were, in that order, 0.096 nM, 0.00034 s⁻¹ and 3.5e+06 M⁻¹ s⁻¹.
In the same order, the values of B11 are 0.24 nM, 0.00038 s⁻¹ and 1.6e+06 M⁻¹ s⁻¹.

Another assay addresses T1, human B7-H3 Fc Chimera (R&D Systems, …). Description: SPR. The protocol: (§2) One flow cell surface on each chip was activated and deactivated for use as blank during analyte injections. In the kinetic experiment, HBS-EP was used as running buffer and the flow rate was 50 μl/min. The analytes, i.e. the Z variants, were each diluted in HBS-EP buffer within a concentration range of 1000 to 0.01 nM and injected for 5 min, followed by dissociation in running buffer for 15-25 min. After dissociation, the surfaces were regenerated with one or two injections of 0.1% SDS. Kinetic constants were calculated from the sensorgrams using the Langmuir 1:1 model of BiaEvaluation software 4.1 (GE Healthcare).
(§3) The Z variants were also tested for binding against the sequence-related proteins hPD-L2, hB7-H3 and hB7-H4. The Biacore analyses were performed essentially as described in Example 3, however a flow rate of 30 μl/min was used.
B6: the binding result is “no binding (tested: 500 nM)”.
Regarding B7, the binding result is “no binding (tested: 500 nM)”.
B8: the binding result is “no binding (tested: 500 nM)”.
Same read-out and setting: the result for B9 reads “no binding (tested: 500 nM)”; that for B10, “no binding (tested: 500 nM)”.
Same read-out and setting: with B11 the entry was “no binding (tested: 500 nM)”; with B12, “no binding (tested: 500 nM)”.

The target of a further assay is T2, human PD-L2 Fc Chimera (R&D Systems, …). Nature of the assay: SPR. The procedure: as §2, §3
As for B6, the binding result is on record as “no binding (tested: 500 nM)”.
In the case of B7, the binding result is listed as “no binding (tested: 500 nM)”.
Consider B8, for which the binding result is “no binding (tested: 500 nM)”.
As to B9, the binding result is reported as “no binding (tested: 500 nM)”.
B10: the binding result is recorded as “no binding (tested: 500 nM)”.
As for B11, the binding result was “no binding (tested: 500 nM)”.
Still for that read-out and setting: the result for B12 reads “no binding (tested: 500 nM)”.

A further assay has as its target T3, human B7-H4 (R&D Systems, cat. no. …). Description: SPR. The protocol: as §2, §3
Consider B6, for which the binding result is listed as “no binding (tested: 500 nM)”.
The same measure, in the same setting: with B7 the entry was “no binding (tested: 500 nM)”; with B8, “no binding (tested: 500 nM)”; with B9, “no binding (tested: 500 nM)”.
Turning to B10, the binding result was “no binding (tested: 500 nM)”.
On the same count and under the same terms, the result for B11 reads “no binding (tested: 500 nM)”.
As for B12, the binding result is reported as “no binding (tested: 500 nM)”.
